Measured values reported in PubChem BioAssay AID686979 (National Center for Advancing Translational Sciences (NCATS), 2013).
Where “and” joins values, the source holds several entries; their conditions need not be identical. Equal entries are not always repeated. Out of some 420,000 compounds screened, about 50,000 (12%) were called active. The inconclusive results got no clear call from the source; some entries with a clear call stand among them for comparison. The call rests on the fitted dose curve; in most records, active means well fitted inhibition curve with a large enough effect; inconclusive means small, poorly fitted or top-dose-only effect; inactive means flat fitted curve, though single readings scatter. No potency is given beside an inconclusive call; the fits are too rough.

Assay: qHTS for Inhibitors of human tyrosyl-DNA phosphodiesterase 1 (TDP1): qHTS in cells in presence of CPT; further: nearly all actives have a fitted effect of over 55% in size
Settings: chicken DT40 Tdp1-/-;hTDP1 cells + 20 nM CPT, ATP luminescence, 48 h; activity change, negative = growth inhibition: at 46.2 µM (top of the series) unless noted
Outline: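 Chicken DT40 Tdp1-/- cells complemented with human TDP1, 400 cells/well, exposed to compounds plus 20 nM camptothecin for at least 48 h at 37 C; viability read as ATP content by CellTiter-Glo luminescence.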
On the % scale 0 is the no-effect control and ±100 the full control effect; potency means the concentration at half of the fitted maximal effect; tags describe the fitted curve by direction and shape.

| SMILES | Potency | activity change, negative = growth inhibition |
| --- | --- | --- |
| O=C(N/N=C\c1cccc(OC(=O)c2ccco2)c1)c1ccc2c(c1)OCO2 | inconclusive [inhibitor, single point] |  |
| Cc1c(C(=O)Nc2cccc([N+](=O)[O-])c2)cnn1-c1ccccc1 | inconclusive [inhibitor, single point] |  |
| COc1ccc(C(=O)c2ccc(N3CCOCC3)cc2)c(OC)c1 | inconclusive [inhibitor, partial curve] |  |
| Cc1cc(/C=N/NC(N)=S)c(C)n1-c1ccc(Cl)c(Cl)c1 | active: 2.59 µM |  |
| Cc1ccc(Nc2cccccc2=O)cc1 | active: 20.6 µM |  |
| COc1ccc(S(=O)(=O)Oc2cccc(/C=N/N=C3/NC(=O)C(CC(=O)O)S3)c2)cc1 (stereo unspecified) | inconclusive [inhibitor, single point] |  |
| O=C(CSc1nnc(Nc2ccccc2F)s1)Nc1cccc(S(=O)(=O)N2CCCCC2)c1 | inconclusive [inhibitor, partial curve, poor fit] |  |
| CCOc1ccc(CCNC(=O)c2ccc(F)c(S(=O)(=O)N3CCOCC3)c2)cc1OCC | inconclusive [inhibitor, single point] |  |
| Cc1ccc(C(=O)COC(=O)CCC(=O)Nc2ccc(Oc3ccccc3)cc2)cc1C |  | inactive: 8.87% |
| CSc1cc(C)c(OCC(=O)Nc2ccc(NC(C)=O)cc2)c(C)c1 | inconclusive [inhibitor, partial curve] |  |
| COc1ccc(/C=C/C(=O)Nc2ccc3c(c2)OCCO3)cc1OC | inconclusive [inhibitor, single point] |  |
| O=C(C[C@H]1C(=O)N(CCc2ccccc2)C[C@@H]1Cc1ccccc1)Nc1ccccc1 | active: 12.6 µM and active: 16.4 µM |  |
| CCOC(=O)N1CCC(NC(=O)C2CCN(S(=O)(=O)c3cccc4cccnc34)CC2)CC1 | inconclusive [inhibitor, single point] |  |
| CCCC(=O)N1CCN(c2ccc(NC(=S)NC(=O)c3cccc(C)c3)cc2)CC1 | inconclusive [inhibitor, single point] |  |
| CC(=O)Nc1cccc(NC(C)=C(C#N)C#N)c1 |  | inactive: 0.132% |
| O=C(NCc1ccccn1)c1ccc(Cl)c(S(=O)(=O)NCc2ccccc2)c1 |  | inactive: 0.412% |
| O=C(Nc1ccc(C(F)(F)F)cc1)N1CCN(C(=O)c2ccco2)CC1 |  | inactive: -2.16% |
| COc1ccc(CNC(=O)Cc2csc3nc(-c4ccc(C)cc4)cn23)cc1 |  | inactive: -24.4% |
| Cc1ccc(Cl)cc1N1CCN(C(=O)C2CCN(Cc3nc(-c4cccc(Cl)c4)oc3C)CC2)CC1 | inconclusive [inhibitor, single point] |  |
| COc1ccc(N(C(=O)CS(=O)CC(=O)Nc2ccc(F)cc2)C(C(=O)NC2CCCCC2)c2cccs2)cc1 (stereo unspecified) | inconclusive [inhibitor, single point] |  |
| Cc1ccc(CN=C(Nc2ccccc2)NC2CCCCC2)cc1 | active: 20.6 µM |  |
| Cc1nn2c(-c3ccccn3)ccnc2c1Br |  | inactive: -21.4% |
| Cn1c(=O)oc2cc(S(=O)(=O)N3CCCC(C(=O)NCCN4CCOCC4)C3)ccc21 (stereo unspecified) |  | inactive: -1.73% |
| COc1ccc(OCCn2c(CCNC(=O)C3CCCCC3)nc3ccccc32)cc1 | inconclusive [inhibitor, single point] |  |

| SMILES | Potency | activity change, negative = growth inhibition |
| --- | --- | --- |
| O=C(NCCCNC(=O)c1ccccc1Cl)c1cnccn1 |  | inactive: 14.9% |
| COc1ccc(CNC(=O)COC(=O)c2ccc(Br)o2)cc1 |  | inactive: -6.48% |
| CCn1c(C(=O)NC2CCC(C)CC2)cc2sccc21 (stereo unspecified) |  | inactive: -20.2% |
| CCCCn1c(SCC(=O)Nc2cc(C(F)(F)F)ccc2Cl)nnc1C(CC)N(C)C (stereo unspecified) | inconclusive [inhibitor, single point] |  |
| O=C(CN1CCc2cc3c(cc2C1)OCCCO3)Nc1ccc(F)cc1 | inconclusive [inhibitor, single point] |  |
| COc1ccc(CC(=O)Nc2cccc(C)n2)cc1OC |  | inactive: -9.48% |
| COC(=O)CC1Oc2ccccc2-n2cc(-c3ccc(Cl)cc3)nc21 (stereo unspecified) | active: 7.31 µM |  |
| CCCn1nnc(NC(=O)c2cc(Br)cc(Br)c2OC)n1 |  | inactive: -24.7% |
| C=CCn1c(CSCc2ccccc2)nnc1SCC(=O)N1CCN(c2ccccc2)CC1 | inconclusive [inhibitor, single point] |  |
| O=C(NCC1CCCO1)C(=O)N/N=C/c1c(F)cccc1Cl (stereo unspecified) |  | inactive: -2.17% |
| Cc1cc(C)cc(N(CC(=O)NCc2ccccc2Cl)S(=O)(=O)c2c(C)noc2C)c1 | inconclusive [inhibitor, single point] |  |
| COc1ccc(Cc2c(-c3ccc(C#N)cc3)nc3c(Cl)cc(C(F)(F)F)cn23)c(C)c1 | inconclusive [inhibitor, single point] |  |
| CCOC(=O)c1ccc(Nc2cc(-c3ccccc3)nc(C)n2)cc1 |  | inactive: -29.3% |
| Cc1cccc(-c2nc(SCC(=O)Nc3ccc4c(c3)OCCO4)c(-c3ccccc3)[nH]2)c1 | inconclusive [inhibitor, single point] |  |
| CCc1nn2c(=O)cc(COC(=O)C(c3ccccc3)c3ccccc3)nc2s1 |  | inactive: -10.5% |
| CCOC(=O)C1=CN(Cc2cccc(F)c2)S(=O)(=O)N(CC)C1c1ccccc1 (stereo unspecified) | inconclusive [inhibitor, single point] |  |
| CCCCN(CCCC)CC(O)CN(c1cc([N+](=O)[O-])ccc1OC)S(=O)(=O)c1ccccc1 (stereo unspecified) | inconclusive [inhibitor, partial curve, poor fit] |  |
| CCOc1ccc(CCNC(=O)COC(=O)Cn2cnc3c2c(=O)n(C)c(=O)n3C)cc1OCC |  | inactive: -5.78% |
| CCn1c(=O)c(=O)[nH]c2c(=O)oc3ccc(S(=O)(=O)Nc4ccccc4)cc3c21 |  | inactive: 13.9% |
| CCOC(=O)CSc1nc(C)c(C(C)=O)cc1C(N)=O |  | inactive: 4.48% |
| COc1ccc(C(C)=O)c(OCC(=O)NCCC2=CCCCC2)c1 |  | inactive: -75.3% |
| NC(=S)N/N=C/c1cccc(Br)c1 | inconclusive [inhibitor, partial curve] |  |
| O=C(CNCCc1ccc(Cl)cc1)Nc1ccc(C(=O)N2CCCCC2)cc1 | inconclusive [inhibitor, single point] |  |
| O=C(COc1ccccc1)Nc1ccccc1C(=O)OCc1cc(=O)n2nc(C3CC3)sc2n1 |  | inactive: -2.78% |

| SMILES | Potency | activity change, negative = growth inhibition |
| --- | --- | --- |
| CN(C)C(=O)c1ccc(NC(=O)c2cncc(Br)c2)cc1 | inconclusive [inhibitor, partial curve] |  |
| O=C(NCCC1CCCCN1S(=O)(=O)c1ccccc1)C(=O)Nc1ccc(F)cc1 (stereo unspecified) | inconclusive [inhibitor, single point] |  |
| CC(C)c1ccc2nc3sc(C(=O)N4CCc5ccccc5C4)c(N)c3cc2c1 | inconclusive [inhibitor, single point] |  |
| COc1ccccc1Cc1c(-c2ccccc2)nc2c(C)cc(Br)cn12 | active: 16.4 µM |  |
| c1ccc2c3c([nH]c2c1)C(C1CCCCC1)N(Cc1ncc[nH]1)CC3 (stereo unspecified) | inconclusive [inhibitor, single point] |  |
| CN(C)CC1CCCCC1OC(=O)/C=C/c1ccc(Cl)cc1Cl (stereo unspecified) | inconclusive [inhibitor, single point] |  |
| COC(=O)CN1C(=O)C(O)(CC(=O)c2ccc(C)cc2)c2cc(Br)ccc21 (stereo unspecified) | inconclusive [inhibitor, single point] |  |
| CCN(c1ccc(NC(=O)CCc2nc3sc4c(c3c(=O)[nH]2)CCCC4)cc1)C(C)C | active: 29.1 µM |  |
| CC(C)C(NC(=O)c1cccs1)C(=O)NC1CCCCC1 (stereo unspecified) |  | inactive: -9.16% |
| CCOc1cc(C(=S)N2CCOCC2)ccc1OS(=O)(=O)c1ccccc1[N+](=O)[O-] | inconclusive [inhibitor, single point] |  |
| CCOCCc1nn2c(=O)cc(COC(=O)C(CC)c3ccccc3)nc2s1 (stereo unspecified) | inconclusive [inhibitor, single point] |  |
| Oc1ccc(Nc2nc(-c3ccccc3)nc3ccccc23)cc1 | inconclusive [inhibitor, single point] |  |
| O=S(=O)(c1ccc(Cl)cc1)N1CCN(Cc2ccncc2)CC1 | inconclusive [inhibitor, single point] |  |
| COc1ccc(N2CCc3c(C)nc4c(OC)cc(OC)cc4c32)c(OC)c1 | active: 6.51 µM |  |
| Cc1cccc(N2CCN(C(=O)c3oc4ccc(Br)cc4c3C)CC2)c1C | inconclusive [inhibitor, single point] |  |
| Cn1nc(Oc2ncc(C(F)(F)F)cc2Cl)cc1C(F)(F)F | inconclusive [inhibitor, single point] |  |
| Cc1ccccc1NC(=O)CSc1nc(N)c2c3c(sc2n1)CSC(C)(C)C3 | active: 23.1 µM |  |
| Cc1nnc(N2CCN(c3ccccc3F)CC2)c2c1nnn2Cc1ccccc1 | inconclusive [inhibitor, single point] |  |
| COc1ccc(/C=c2\s/c(=C/C(=O)c3ccc(C)cc3)[nH]c2=O)c(OC)c1 |  | inactive: -21.5% |
| Cc1cc(C)c(NC(=O)CSc2nc3ccccc3c(=O)n2CCCN2CCOCC2)c(C)c1 | inconclusive [inhibitor, single point] |  |
| Cc1ccc(C(=O)COC(=O)c2cccc(N3C(=O)c4c(C)nc5ccccc5c4C3=O)c2)cc1C |  | inactive: 1.34% |
| O=C(CCc1ccccn1)N1CCCC(N2CCN(c3cccc(C(F)(F)F)c3)CC2)C1 (stereo unspecified) | inconclusive [inhibitor, partial curve] |  |
| COc1ccc(C2(CNC(=O)c3cc(OC)c(OC)c(OC)c3)CCCC2)cc1OC | inconclusive [inhibitor, single point] |  |
